Among the test systems are WM115; WM1716; WM1745; WM3526; WM3619; WM451Lu.
Assay in all cases: cell count relative to DMSO control; melanoma cells; higher = more viable cells
Conditions in all cases: library dose: low library concentration; 72 h

Molecules are shown by their SMILES. The list shows a part of the results. Repeats are few or missing, and single values can be far off.
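Further: cell number obtained by counting DAPI-stained nuclei in high-throughput microscope images with image analysis software, screen run in 1,536-well plates.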

On to `Cc1cc(Nc2cc(N3CCN(C)CC3)nc(/C=C/c3ccccc3)n2)n[nH]1` + COc1cc2ncnc(Nc3ccc(Oc4ccccc4)cc3)c2cc1OC [SrcI1] (first compound 0.04 µM, partner dose 2 µM), for which the cell count in the experiment with WM115 was 94.2%; in the experiment with WM1716, 119%; with WM1745, 85.5%; in the experiment with WM3526, 85.8%; in the experiment with WM3619, 98.2%; with WM451Lu it was 110%.
For `Cc1cc(Nc2cc(N3CCN(C)CC3)nc(/C=C/c3ccccc3)n2)n[nH]1` + CO[C@@H]1[C@H](N(C)C(=O)c2ccccc2)C[C@H]2O[C@]1(C)n1c3ccccc3c3c4c(c5c6ccccc6n2c5c31)C(=O)NC4 [Midostaurin] (first compound 0.04 µM, partner dose 0.08 µM), the cell count in the experiment on WM115 came out at 78.7%; with WM1716, 70.4%; in the experiment with WM1745, 76%; in the experiment on WM3526 it was 102%; with WM3619, 88.9%; with WM451Lu, 108%.
`Cn1c(=O)n(-c2ccc(C(C)(C)C#N)cc2)c2c3cc(-c4cnc5ccccc5c4)ccc3ncc21` + Cc1ccc(NC(=O)c2cccc(N(C)C)c2)cc1NC(=O)c1ccc(O)cc1 [ZM336372] (first compound 0.004 µM, partner dose 2 µM): the cell count came out at 96.6% in the experiment on WM115; 114% in the experiment on WM1716; 93.1% with WM1745; 86.5% in the experiment with WM3526; 94.3% in the experiment on WM3619; 113% with WM451Lu.
As to `COc1ccc(C2=N[C@@H](c3ccc(Cl)cc3)[C@@H](c3ccc(Cl)cc3)N2C(=O)N2CCNC(=O)C2)c(OC(C)C)c1` [Nutlin-3] + O=C(Nc1cccc(Cl)c1)Nc1ncc(CCNc2ncnc3ccsc23)s1 [SNS314] (first compound 0.1 µM, partner dose 0.0008 µM), the cell count in the experiment on WM115 was 61.6%; in the experiment on WM1716, 104%; in the experiment with WM1745, 88.9%; with WM3526, 99.3%; in the experiment on WM3619 it was 84.4%; in the experiment on WM451Lu, 86.8%.
For `COc1ccc(C2=N[C@@H](c3ccc(Cl)cc3)[C@@H](c3ccc(Cl)cc3)N2C(=O)N2CCNC(=O)C2)c(OC(C)C)c1` [Nutlin-3] + NC(=O)Nc1cc(-c2cccc(F)c2)sc1C(=O)N[C@H]1CCCNC1 [AZD7762] (first compound 0.1 µM, partner dose 0.02 µM), the cell count was determined as 82% with WM115; 84.1% with WM1716; 87.5% in the experiment with WM1745; 80.2% in the experiment with WM3526; 68.7% in the experiment with WM3619; 93.7% with WM451Lu.
With `CC(C)C[C@H](NC(=O)[C@H](Cc1ccccc1)NC(=O)c1cnccn1)B(O)O` [Bortezomib] + CC(C)(C)c1cnc(CSc2cnc(NC(=O)C3CCNCC3)s2)o1 [SNS-032] (first compound 0.001 µM, partner dose 0.01 µM), the cell count was 97.8% in the experiment with WM115; 42.1% in the experiment on WM1716; 62.4% in the experiment on WM1745; 94.2% in the experiment on WM3526; 14.9% in the experiment on WM3619; 99.4% in the experiment on WM451Lu.
On to `Cc1cc(Nc2cc(N3CCN(C)CC3)nc(/C=C/c3ccccc3)n2)n[nH]1` + COc1cc(Nc2ncc(F)c(Nc3ccc4c(n3)NC(=O)C(C)(C)O4)n2)cc(OC)c1OC [Tamatinib] (first compound 0.04 µM, partner dose 0.4 µM), for which the cell count with WM115 turned out to be 90.4%; in the experiment on WM1716, 102%; in the experiment on WM1745, 76.8%; in the experiment on WM3526, 99.9%; in the experiment with WM3619 it was 90.1%; in the experiment with WM451Lu, 82.7%.
For `COc1ccc(C2=N[C@@H](c3ccc(Cl)cc3)[C@@H](c3ccc(Cl)cc3)N2C(=O)N2CCNC(=O)C2)c(OC(C)C)c1` [Nutlin-3] + CO[C@H]1C[C@@H]2CC[C@@H](C)[C@@](O)(O2)C(=O)C(=O)N2CCCC[C@H]2C(=O)O[C@H]([C@H](C)C[C@@H]2CC[C@@H](OCCO)[C@H](OC)C2)CC(=O)[C@H](C)/C=C(\C)[C@@H](O)[C@@H](OC)C(=O)[C@H](C)C[C@H](C)/C=C/C=C/C=C/1C [everolimus] (first compound 0.1 µM, partner dose 0.02 µM), the cell count in the experiment with WM115 was 74.5%; with WM1716, 78.6%; with WM1745 it was 77.3%; in the experiment with WM3526 it was 83.4%; in the experiment with WM3619 it was 58.3%; in the experiment on WM451Lu, 90.4%.
Turning to `Cc1cc(Nc2cc(N3CCN(C)CC3)nc(/C=C/c3ccccc3)n2)n[nH]1` + O=C(Nc1cccc(Cl)c1)Nc1ncc(CCNc2ncnc3ccsc23)s1 [SNS314] (first compound 0.04 µM, partner dose 0.0008 µM), the cell count in the experiment with WM115 worked out at 68.2%; in the experiment with WM1716, 84.7%; in the experiment on WM1745 it was 84.7%; in the experiment on WM3526, 88.8%; with WM3619 it was 114%; in the experiment with WM451Lu, 92.6%.
`Cc1cc(Nc2cc(N3CCN(C)CC3)nc(/C=C/c3ccccc3)n2)n[nH]1` + Cn1cncc1[C@@](N)(c1ccc(Cl)cc1)c1ccc2c(c1)c(-c1cccc(Cl)c1)cc(=O)n2C [tipifarnib] (first compound 0.04 µM, partner dose 0.01 µM): the cell count in the experiment on WM115 was 81.8%; in the experiment with WM1716, 83.1%; with WM1745 it was 83.4%; in the experiment with WM3526, 76.4%; in the experiment on WM3619, 97%; with WM451Lu, 75.7%.
On to `Cc1cn(-c2cc(NC(=O)c3ccc(C)c(Nc4nccc(-c5cccnc5)n4)c3)cc(C(F)(F)F)c2)cn1` [nilotinib] + Oc1nc(-c2ccc(C(F)(F)F)cc2)nc2c1CSCC2 [XAV939] (first compound 0.2 µM, partner dose 2 µM), for which the cell count in the experiment with WM115 is 107%; in the experiment on WM1716, 66.6%; in the experiment on WM1745, 76%; with WM3526, 113%; with WM3619, 86.2%; with WM451Lu, 110%.
With `Cc1cn(-c2cc(NC(=O)c3ccc(C)c(Nc4nccc(-c5cccnc5)n4)c3)cc(C(F)(F)F)c2)cn1` [nilotinib] + Clc1ccc(Nc2nnc(Cc3ccncc3)c3ccccc23)cc1 [vatalanib] (first compound 0.2 µM, partner dose 2 µM), the cell count in the experiment with WM115 is 108%; in the experiment on WM1716, 103%; in the experiment on WM1745, 76.8%; in the experiment on WM3526 it was 105%; with WM3619, 90.8%; in the experiment on WM451Lu, 104%.
With `Cc1cn(-c2cc(NC(=O)c3ccc(C)c(Nc4nccc(-c5cccnc5)n4)c3)cc(C(F)(F)F)c2)cn1` [nilotinib] + Cn1nnc2c(C(N)=O)ncn2c1=O [temozolomide] (first compound 0.2 µM, partner dose 2 µM), the cell count came out at 96.8% in the experiment with WM115; 89.3% with WM1716; 81.8% in the experiment with WM1745; 119% in the experiment with WM3526; 106% with WM3619; 101% in the experiment on WM451Lu.
On to `Cc1cn(-c2cc(NC(=O)c3ccc(C)c(Nc4nccc(-c5cccnc5)n4)c3)cc(C(F)(F)F)c2)cn1` [nilotinib] + O=C(O)[C@@H]1[O][Sb](=[O])([O][Sb]2(=[O])[O][C@H]([C@H](O)CO)[C@H](O)[C@H](C(=O)O)[O]2)[O][C@H]([C@H](O)CO)[C@@H]1O [stibogluconate] (first compound 0.2 µM, partner dose 2 µM), for which the cell count with WM115 is 101%; with WM1716 it was 97%; in the experiment with WM1745, 88.3%; in the experiment with WM3526, 112%; with WM3619 it was 96%; in the experiment with WM451Lu it was 106%.
As for `Cc1cn(-c2cc(NC(=O)c3ccc(C)c(Nc4nccc(-c5cccnc5)n4)c3)cc(C(F)(F)F)c2)cn1` [nilotinib] + Cn1c(Nc2ccc(C(F)(F)F)cc2)nc2cc(Oc3ccnc(-c4ncc(C(F)(F)F)[nH]4)c3)ccc21 [CHIR265] (first compound 0.2 µM, partner dose 0.08 µM), the cell count in the experiment on WM115 worked out at 66.3%; in the experiment with WM1716 it was 101%; with WM1745, 67.5%; in the experiment on WM3526, 61.4%; in the experiment on WM3619, 78.7%; in the experiment with WM451Lu it was 99.5%.
Take `Cc1cc(Nc2cc(N3CCN(C)CC3)nc(/C=C/c3ccccc3)n2)n[nH]1` + Nc1ncn([C@H]2C[C@H](O)[C@@H](CO)O2)c(=O)n1 [decitabine] (first compound 0.04 µM, partner dose 0.1 µM): the cell count in the experiment on WM115 came out at 71%; in the experiment on WM1716, 92.9%; in the experiment on WM1745 it was 99.8%; with WM3526 it was 95.2%; in the experiment with WM3619, 90.3%; with WM451Lu, 87.3%.
As for `Cc1cc(Nc2cc(N3CCN(C)CC3)nc(/C=C/c3ccccc3)n2)n[nH]1` + CCCS(=O)(=O)Nc1ccc(F)c(C(=O)c2c[nH]c3ncc(Cl)cc23)c1F [PLX4720] (first compound 0.04 µM, partner dose 0.08 µM), the cell count in the experiment with WM115 was 87%; in the experiment on WM1716 it was 119%; in the experiment on WM1745, 106%; in the experiment with WM3526, 71.8%; in the experiment with WM3619, 100%; in the experiment on WM451Lu, 111%.
Take `CC(C)C[C@H](NC(=O)[C@H](Cc1ccccc1)NC(=O)c1cnccn1)B(O)O` [Bortezomib] + C=CCn1c(=O)c2cnc(Nc3ccc(N4CCN(C)CC4)cc3)nc2n1-c1cccc(C(C)(C)O)n1 [MK1775] (first compound 0.001 µM, partner dose 0.02 µM): the cell count is 78.7% in the experiment on WM115; 40.5% with WM1716; 74.1% in the experiment with WM1745; 80.1% in the experiment on WM3526; 41.2% in the experiment with WM3619; 95.2% in the experiment on WM451Lu.
With `Cc1cn(-c2cc(NC(=O)c3ccc(C)c(Nc4nccc(-c5cccnc5)n4)c3)cc(C(F)(F)F)c2)cn1` [nilotinib] + Cn1sc(=O)n(Cc2ccccc2)c1=O [TDZD-8] (first compound 0.2 µM, partner dose 0.4 µM), the cell count with WM115 is 105%; in the experiment with WM1716, 122%; in the experiment on WM1745, 92.8%; in the experiment on WM3526, 115%; in the experiment on WM3619, 133%; in the experiment on WM451Lu it was 109%.
For `Cc1cc(Nc2cc(N3CCN(C)CC3)nc(/C=C/c3ccccc3)n2)n[nH]1` + O=C1NC(=O)/C(=C/c2ccc(-c3ccc(F)cc3O)o2)S1 [AS252424] (first compound 0.04 µM, partner dose 1 µM), the cell count in the experiment on WM115 is 90.4%; in the experiment with WM1716, 81.9%; in the experiment on WM1745, 94.9%; in the experiment with WM3526, 93.3%; with WM3619 it was 118%; in the experiment with WM451Lu, 107%.
Take `CC(C)C[C@H](NC(=O)[C@H](Cc1ccccc1)NC(=O)c1cnccn1)B(O)O` [Bortezomib] + COc1ccc2c(c1)CCC1C2CCC2(C)C(NCCCCCCN3C(=O)C=CC3=O)CCC12 [U73122] (first compound 0.001 µM, partner dose 0.4 µM): the cell count came out at 105% with WM115; 23.8% in the experiment with WM1716; 60.5% with WM1745; 90.6% in the experiment with WM3526; 18.5% in the experiment with WM3619; 84.1% in the experiment on WM451Lu.
On to `Cn1c(=O)n(-c2ccc(C(C)(C)C#N)cc2)c2c3cc(-c4cnc5ccccc5c4)ccc3ncc21` + CNC(=O)c1cc(Oc2ccc(NC(=O)Nc3ccc(Cl)c(C(F)(F)F)c3)cc2)ccn1 [sorafenib] (first compound 0.004 µM, partner dose 0.4 µM), for which the cell count turned out to be 96.9% in the experiment on WM115; 90.2% in the experiment with WM1716; 96.9% in the experiment with WM1745; 85.5% with WM3526; 96.1% in the experiment with WM3619; 105% with WM451Lu.
As to `COc1ccc(C2=N[C@@H](c3ccc(Cl)cc3)[C@@H](c3ccc(Cl)cc3)N2C(=O)N2CCNC(=O)C2)c(OC(C)C)c1` [Nutlin-3] + NCC(=O)Nc1ccc(-n2nc(C(F)(F)F)cc2-c2ccc3c(ccc4ccccc43)c2)cc1 [OSU03012] (first compound 0.1 µM, partner dose 1 µM), the cell count in the experiment on WM115 was determined as 76.9%; with WM1716 it was 85.1%; with WM1745 it was 93.5%; in the experiment with WM3526 it was 52%; in the experiment with WM3619, 110%; in the experiment with WM451Lu, 61.8%.
Regarding `Cn1c(=O)n(-c2ccc(C(C)(C)C#N)cc2)c2c3cc(-c4cnc5ccccc5c4)ccc3ncc21` + COc1ccc(Cl)c(Nc2nc3ccccc3nc2NS(=O)(=O)c2cccc(NC(=O)C(C)(C)N)c2)c1 [XL147] (first compound 0.004 µM, partner dose 0.8 µM), the cell count in the experiment with WM115 is 105%; in the experiment with WM1716 it was 76.2%; in the experiment with WM1745, 87.8%; in the experiment with WM3526, 97.3%; in the experiment with WM3619, 96.8%; with WM451Lu it was 97.7%.

Source of the values: the supplement of paper PMC4604168 (melanoma cell lines).
